Laboratory results published in the supplement of paper PMC12645437, “Orthogonal IMiD-Degron Pairs Induce Selective Protein Degradation in Cells” (ACS Chemical Biology, 2025).
The list shows a part of the results.
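Further: jurkat cells carrying a lentiviral library of mutant zinc finger degrons fused to EGFP plus mCherry, mCherry+ cells FACS sorted, degron abundance counted by next-generation sequencing.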

The sequences below were run against no compound (DMSO) (assay: log2 fold change of degron read counts, EGFP-low vs EGFP+ sorted cells; higher = lower degron-EGFP level without compound (poor expression or instability)). Conditions: compound: DMSO control; 18 h.
With LCCPICGFCCTQKGNLLRHIKL the “log2 fold change of degron read counts” value was 0.866.
FYCDQCGAQFTQKGNLLRHIKL was tested, and the “log2 fold change of degron read counts” value was -1.13.
In the case of FCCEICGREFTQKGNLLRHIKL, the “log2 fold change of degron read counts” value is reported as -2.84.
For FGCNQCGAHFTQKGNLLRHIKL, the “log2 fold change of degron read counts” value was 0.0462.
LICPICGFNCTQKGNLLRHIKL was tested, and the “log2 fold change of degron read counts” value was 0.824.
In the case of FNCDQCGATFTQKGNLLRHIKL, the “log2 fold change of degron read counts” value is reported as -2.74.
FWCPQCGAAFTQKGNLLRHIKL was tested, and the “log2 fold change of degron read counts” value was 0.77.
With LRCNQCGFYCTQKGNLLRHIKL the “log2 fold change of degron read counts” value was 1.31.
FSCEICGAHFTQKGNLLRHIKL was tested, and the “log2 fold change of degron read counts” value was -1.87.
For FHCEQCGAMFTQKGNLLRHIKL, the “log2 fold change of degron read counts” value was -1.37.
With FSCPICGACFTQKGNLLRHIKL the “log2 fold change of degron read counts” value was -0.111.
FYCNICGAFFTQKGNLLRHIKL was tested, and the “log2 fold change of degron read counts” value was 1.13.
With FSCPICGRGFTQKGNLLRHIKL the “log2 fold change of degron read counts” value was -0.805.
In the case of FYCPICGHQFTQKGNLLRHIKL, the “log2 fold change of degron read counts” value is reported as 0.0994.
For FRCPICGAIFTQKGNLLRHIKL, the “log2 fold change of degron read counts” value was 0.0815.
FKCNVCGAWFTQKGNLLRHIKL was tested, and the “log2 fold change of degron read counts” value was -0.212.
In the case of FMCSVCGHDFTQKGNLLRHIKL, the “log2 fold change of degron read counts” value is reported as -0.766.
FDCEICGHKFTQKGNLLRHIKL was tested, and the “log2 fold change of degron read counts” value was -0.962.
FFCDQCGACFTQKGNLLRHIKL was tested, and the “log2 fold change of degron read counts” value was 0.00723.
FYCEICGHTFTQKGNLLRHIKL was tested, and the “log2 fold change of degron read counts” value was -1.87.
In the case of FTCPICGAIFTQKGNLLRHIKL, the “log2 fold change of degron read counts” value is reported as 0.5.
In the case of LTCPICGFHCTQKGNLLRHIKL, the “log2 fold change of degron read counts” value is reported as 0.462.
For FVCDVCGANFTQKGNLLRHIKL, the “log2 fold change of degron read counts” value was -1.57.
For FNCPICGHYFTQKGNLLRHIKL, the “log2 fold change of degron read counts” value was 0.379.
For FRCDVCGATFTQKGNLLRHIKL, the “log2 fold change of degron read counts” value was -2.18.
FACEICGAIFTQKGNLLRHIKL was tested, and the “log2 fold change of degron read counts” value was -1.38.
For LSCEICGFMCTQKGNLLRHIKL, the “log2 fold change of degron read counts” value was 0.299.
In the case of FHCEICGAYFTQKGNLLRHIKL, the “log2 fold change of degron read counts” value is reported as -1.52.
With LECEICGFRCTQKGNLLRHIKL the “log2 fold change of degron read counts” value was -1.75.
For FNCEICGRWFTQKGNLLRHIKL, the “log2 fold change of degron read counts” value was -0.243.
With FECDVCGAVFTQKGNLLRHIKL the “log2 fold change of degron read counts” value was -2.
FNCEICGREFTQKGNLLRHIKL was tested, and the “log2 fold change of degron read counts” value was -2.59.
For FTCDVCGADFTQKGNLLRHIKL, the “log2 fold change of degron read counts” value was -3.71.
With FHCNQCGRNFTQKGNLLRHIKL the “log2 fold change of degron read counts” value was -1.48.
FHCNQCGHGFTQKGNLLRHIKL was tested, and the “log2 fold change of degron read counts” value was 0.317.
For FHCDVCGAQFTQKGNLLRHIKL, the “log2 fold change of degron read counts” value was -1.8.
For FKCEICGRRFTQKGNLLRHIKL, the “log2 fold change of degron read counts” value was -2.42.
LVCEICGFFCTQKGNLLRHIKL was tested, and the “log2 fold change of degron read counts” value was 1.25.
With FTCPQCGADFTQKGNLLRHIKL the “log2 fold change of degron read counts” value was -2.36.
LMCEICGFECTQKGNLLRHIKL was tested, and the “log2 fold change of degron read counts” value was -0.329.
With FHCPVCGATFTQKGNLLRHIKL the “log2 fold change of degron read counts” value was -0.162.
In the case of FVCEVCGAQFTQKGNLLRHIKL, the “log2 fold change of degron read counts” value is reported as -2.
FMCEICGHKFTQKGNLLRHIKL was tested, and the “log2 fold change of degron read counts” value was -2.48.
With FKCPVCGAAFTQKGNLLRHIKL the “log2 fold change of degron read counts” value was 0.0654.
FFCPICGRRFTQKGNLLRHIKL was tested, and the “log2 fold change of degron read counts” value was -1.83.
With FRCEICGHAFTQKGNLLRHIKL the “log2 fold change of degron read counts” value was -2.11.
With FACDQCGAWFTQKGNLLRHIKL the “log2 fold change of degron read counts” value was -0.0901.
FFCEICGAIFTQKGNLLRHIKL was tested, and the “log2 fold change of degron read counts” value was 0.011.
For FDCDICGALFTQKGNLLRHIKL, the “log2 fold change of degron read counts” value was 0.167.
With LMCNQCGFYCTQKGNLLRHIKL the “log2 fold change of degron read counts” value was 1.48.
